Reference: PubChem BioAssay AID504466 (National Center for Advancing Translational Sciences (NCATS), 2011)
The campaign covered roughly 330,000 compounds. About 4,200 (1.3%) were called active. Inconclusive results, whose numbers are uncertain, are shown with a selection of clear calls. Calls follow the shape of the dose curve; as a rule, active = well fitted activation curve with a large enough effect; inconclusive = small, poorly fitted or top-dose-only effect; inactive = no such curve, though single readings can be large or run the other way. Potencies beside an inconclusive call are fits to weak or partial responses and may not hold up.

Experiment: qHTS screen for small molecules that induce genotoxicity in human embryonic kidney (HEK293T) cells expressing luciferase-tagged ELG1; also: nearly all actives have a fitted effect of over 60% in size
Settings: HEK293T ELG1-luciferase reporter, luminescence, 16 h; series mostly up to 46 µM
In short: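 Reporter readout depends on ELG1 protein level, which increases with genetic stress. After 16 hr compound exposure at 37 °C, luciferase activity was quantified using ONE-Glo.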
Potency is read from the fitted curve at half-maximal effect; tags tell the direction and shape of the fitted curve.

| Structure (SMILES) | Potency |
| --- | --- |
| COc1ccc(-n2nnnc2SCc2nc3ccccc3s2)cc1 | active: 16.4 µM |
| Cc1ccc(NC(=O)c2cn(-c3cccc(C)n3)cn2)cc1 | inconclusive: 7.31 µM [activator, partial curve, poor fit] |
| COc1ccc(CC(=O)N2CCc3ccccc32)cc1 | inconclusive: 18.4 µM [activator, partial curve, poor fit] |
| CCC1CCCCN1CCCNC(=O)c1ccc(CS(=O)(=O)c2ccccc2C)o1 (centres undefined) | inactive |
| Cc1ccc(/C=C2\SC(N)=NC2=O)s1 | inactive |
| Cc1cccc(N/N=C/c2ccccc2O)c1 | inconclusive: 20.6 µM [activator, partial curve] |
| COc1ccc(-c2cc(-c3cccs3)c(C#N)c(SCC(=O)NCc3ccccc3OC)n2)cc1 | inconclusive: 32.6 µM [activator, partial curve, poor fit] |
| Cc1ccc(NC(=O)CN2CCCC2c2cccn2C)c(Br)c1 (centres undefined) | inconclusive: 23.1 µM [activator, partial curve, poor fit] |
| Cc1ccc(-c2nnc(-c3cccs3)o2)cc1 | active: 5.17 µM |
| COc1cc(C(=O)Oc2ccccc2/C=N/NC(=O)c2ccc(C)c(Cl)c2)cc(OC)c1OC | inconclusive: 13 µM [activator, partial curve, poor fit] |
| NC(=O)C1CCN(C(=O)Cc2ccsc2)CC1 | inactive |
| CCOC(=O)c1ccc2[nH]c3c(c2c1)CCCC3NC=O (centres undefined) | inconclusive: 23.1 µM [activator, partial curve, poor fit] |
| O=C(c1cc(-c2cccs2)on1)N1CCOCC1 | inconclusive: 8.2 µM [activator, partial curve, poor fit] |
| CCOc1cc(-c2cc(-c3ccccc3)nc(N)c2C#N)ccc1O | inconclusive: 18.4 µM [activator, partial curve] |
| O=C(COc1ccc(F)cc1Br)N1CCc2ccccc21 | active: 1.58 µM |
| COc1cccc(-c2cc(C(=O)Nc3cc(C)nn3-c3ccccc3)no2)c1 | inconclusive: 15.8 µM [activator, single point] |
| CC(C)Oc1ccc(N2C(=O)c3ccccc3C2=O)cc1 | inconclusive: 23.1 µM [activator, single point] |
| O=C(Nc1ccccc1)c1cnc[nH]1 | inconclusive: 20.6 µM [activator, partial curve, poor fit] |
| COc1ccc(/C=N/Nc2cn[nH]c(=O)c2Cl)cc1 | active: 20.6 µM |
| COc1ccccc1/C=C/C(=O)Nc1cccnc1 | inconclusive: 29.1 µM [activator, single point] |
| COc1cc2c(c(OC)c1OC)C(c1ccc(C)cc1)CC(=O)O2 (centres undefined) | inconclusive: 18.3 µM [activator, partial curve, poor fit] |
| CCn1nnc(NC(=O)c2sc3ccccc3c2Cl)n1 | active: 20.6 µM |
| O=C1NC(=Nc2ccccc2)S/C1=C\c1cccn1-c1ccccc1 | inconclusive: 2.31 µM [activator, partial curve] |
| Cc1cc(/C=C2/C(=O)N(C)C(=S)N2C)ccc1N1CCCC1 | inconclusive: 9.2 µM [activator, partial curve] |
| COc1ccc(-c2cc3c(=O)n(CC(=O)NCc4ccc(C)cc4)ncn3n2)cc1 | inconclusive: 3.26 µM [activator, partial curve] |

| Structure (SMILES) | Potency |
| --- | --- |
| COc1ccc(-n2c(SCCNCCO)nc3sc4c(c3c2=O)CCCC4)cc1 | inactive |
| CC1CC(=O)N(C)c2ccc([N+](=O)[O-])cc2N1 (centres undefined) | inconclusive: 25.9 µM [activator, partial curve, poor fit] |
| O=C(Nc1scc(-c2ccccc2)c1C(=O)O)c1ccco1 | inconclusive: 20.6 µM [activator, single point] |
| O=C(Nc1ccc(S(=O)(=O)NCc2ccccc2)cc1)Nc1ccc2c(c1)OCO2 | inconclusive: 20.6 µM [activator, partial curve] |
| CCOC(=O)c1nn(-c2ccc3ccccc3c2)cc1O | active: 14.6 µM |
| COC(=O)Cn1ncn2c(cc3oc(C)cc32)c1=O | inconclusive: 14.6 µM [activator, partial curve] |
| CC(OC(=O)c1cccc(S(=O)(=O)N2CCCCCC2)c1)C(=O)Nc1ccc(S(N)(=O)=O)cc1 (centres undefined) | inactive |
| O=C(Nc1ccc(N2CCCCC2)c(Cl)c1)c1ccc2c(c1)OCCO2 | inconclusive: 23.1 µM [activator, partial curve, poor fit] |
| Cc1ccc(S(=O)(=O)Cc2ccc(C(=O)N3CCN(Cc4ccccc4)CC3)o2)cc1 | inactive |
| CCC1CCCCN1CCCNC(=O)c1ccc2nc(N3CCC(C)CC3)sc2c1 (centres undefined) | active: 0.164 µM |
| CCC(=O)Nc1cccc(C(=O)OC)c1 | inactive |
| CCOC(=O)c1nn(-c2cccc(C)c2)cc1C(=O)c1ccccc1 | inconclusive: 10.3 µM [activator, partial curve] |
| COc1cccc(NC(=O)CCN2C(=O)C3CC=CCC3C2=O)c1 (centres undefined) | inconclusive: 20.6 µM [activator, partial curve] |
| CSc1nc(C)c(CCOC(=O)c2cccc(Cl)c2)c(=O)[nH]1 | inactive |
| COc1ccc(NC(=O)Nc2ccc(F)cc2F)cc1 | inconclusive: 1.46 µM [activator, full curve] |
| CCOc1ccc(NC(=O)Nc2cc(C)ccc2F)cc1 | active: 5.62 µM |
| c1cc(CNc2ccc3c(c2)OCCO3)ccn1 | active: 18.4 µM |
| O=C(CSc1nnc(NC(=O)c2ccccc2F)s1)Nc1ccccc1F | inconclusive: 18.3 µM [activator, partial curve] |
| CC(C)(C)c1ccc(C(=O)N2CCN(CCNC(=O)C(=O)NCc3ccc(Cl)cc3)CC2)cc1 | inactive |
| CN(c1cccc(NC(=O)COc2ccccc2)c1)S(C)(=O)=O | inconclusive: 18.4 µM [activator, single point] |
| Cc1ccccc1Nc1nc(N)nc(COC(=O)c2ccccc2)n1 | inconclusive: 13 µM [activator, partial curve] |
| COc1ccccc1OCC#CCNC1CCCCC1C (centres undefined) | inactive |
| CCOC(=O)/C=C/c1ccc2oc3ccccc3c(=O)c2c1 | inconclusive: 3.66 µM [activator, full curve, poor fit] |
| CC(=O)c1ccc(N2CCN(S(=O)(=O)c3cc4c(cc3C)NC(=O)CO4)CC2)cc1 | inactive |
| N/C(=N\OC(=O)c1cccc(Cl)c1)c1ccccn1 | inconclusive: 5.8 µM [activator, partial curve] |

| Structure (SMILES) | Potency |
| --- | --- |
| Cc1cc(C)cc(NC(=O)c2sc3nc(C)cc(C)c3c2N)c1 | inconclusive: 20.6 µM [activator, partial curve] |
| COc1ccc(-c2cc(=O)oc3c(C)c(OC(C)C(=O)NCc4ccccn4)ccc23)cc1 (centres undefined) | inconclusive: 29.1 µM [activator, single point] |
| COc1ccc(N=c2sc3ccccc3n2C)cc1 | active: 8.2 µM |
| Cc1ccc(NC(=O)CN2C(=O)S/C(=C\c3ccccn3)C2=O)cc1C | inconclusive: 18.3 µM [activator, partial curve, poor fit] |
| Cc1ccc(C(=O)NNC(=O)CCn2nnc3ccccc32)cc1 | inactive |
| COc1ccc(-c2nc3n(n2)C(c2ccccc2)C2=C(CCCC2=O)N3)cc1OC (centres undefined) | inconclusive: 16.4 µM [activator, partial curve, poor fit] |
| O=C(c1[nH]ncc1-c1cccc(Br)c1)C1CO1 (centres undefined) | inconclusive: 18.3 µM [activator, partial curve, poor fit] |
| COC(=O)c1sccc1NC(=O)c1csc2c1CCCC2 | inconclusive: 18.4 µM [activator, partial curve, poor fit] |
| CCCN(Cc1ccccc1)C(=O)Nc1ccc2c(c1)nnn2C | inconclusive: 9.2 µM [activator, partial curve] |
| COc1ccc(NC(=O)C2COc3ccccc3O2)cc1 (centres undefined) | inconclusive: 11.6 µM [activator, partial curve] |
| FC(F)(F)c1cc(Cl)c2nc(-c3ccccc3)cn2c1 | inconclusive: 4.61 µM [activator, partial curve] |
| N/C(=N\OC(=O)Cc1ccc(Cl)cc1)c1ccccn1 | active: 16.4 µM |
| CSc1nnc(N2C(=O)C(O)=C(C(=O)c3ccc(C)o3)C2c2ccc(C)cc2)s1 (centres undefined) | active: 1.3 µM |
| O=C(Nc1ccccc1-c1ccccc1)C12CC3CC(CC(C3)C1)C2 | inactive |
| Cc1ccc(-n2c(Cl)c(Cl)nc(Cl)c2=O)cc1 | inactive |
| CC(/C=C/c1ccc(N(C)C)cc1)=N\N=C(/N)SC1CC(=O)N(c2ccc(C(=O)O)cc2)C1=O (centres undefined) | inconclusive: 23.1 µM [activator, partial curve, poor fit] |
| Cc1ccc(-c2nc3cc(C)ccc3o2)cc1 | active: 0.517 µM |
| Cc1ccccc1-c1noc(-c2ccccc2F)n1 | active: 6.51 µM |
| CCC(Sc1nnnn1C)C(=O)Nc1ccc(C(C)=O)cc1 (centres undefined) | active: 18.4 µM |
| CCN1CCN(CCCNC(=O)C2CCCN(c3nc4c(C)cc(C)cc4s3)C2)CC1 (centres undefined) | inconclusive: 20.6 µM [activator, single point] |
| COc1ccc(/C=C/C(=O)c2ccc(Cl)cc2)c(OC)c1 | inconclusive: 32.6 µM [activator, partial curve, poor fit] |
| Nc1ccc(C(=O)Nc2ccco2)cc1 | inactive |
| O=c1oc(Nc2cccc(F)c2)nc2ccccc12 | active: 18.4 µM |
| COc1ccc(-n2ncc3c(NCC(C)C)ncnc32)cc1 | inconclusive: 1.84 µM [activator, partial curve] |
